# From the supplement of paper PMC4967469
# Tests used:
# Assay in all cases: Viability of human cancer cell lines after 72 h of drug (GDSC screen)
# TG101348 = compound: Cc1cnc(Nc2ccc(OCCN3CCCC3)cc2)nc1Nc1cccc(S(=O)(=O)NC(C)(C)C)c1 [TG101348]; conditions: top dose 10.24 µM
# Procedure: (§1)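 Human cancer cell lines in 384-well plates, medium with 10% serum, drug for 72 h over a 256-fold dose range (nine 2-fold or five 4-fold steps up to the top dose). Adherent lines were fixed and stained with the nucleic acid dye Syto60, suspension lines read with resazurin; signal relative to control wells, capped at 0 and 100%. One two-parameter sigmoid per drug and line, fitted in a mixed model over all curves with the slope shared within a line.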
# Vismodegib = compound: CS(=O)(=O)c1ccc(C(=O)Nc2ccc(Cl)c(-c3ccccn3)c2)c(Cl)c1 [Vismodegib]; conditions: top dose 10 µM; top dose inferred
# Procedure: as §1
# 17-AAG = compound: C=CCNC1=C2C[C@@H](C)C[C@H](OC)[C@H](O)[C@@H](C)/C=C(\C)[C@H](OC(N)=O)[C@@H](OC)/C=C\C=C(/C)C(=O)NC(=CC1=O)C2=O [17-AAG]; conditions: top dose 1 µM
# Procedure: as §1
# Dimethyloxalylglycine = compound: COC(=O)CNC(=O)C(=O)OC [Dimethyloxalylglycine]; conditions: top dose 4000 µM; top dose inferred
# Procedure: as §1
# BIX02189 = compound: CN(C)Cc1cccc(N=C(c2ccccc2)c2c(O)[nH]c3cc(C(=O)N(C)C)ccc23)c1 [BIX02189]; conditions: top dose 20 µM; top dose inferred
# Procedure: as §1
# VX-11e = compound: Cc1cnc(Nc2ccc(F)cc2Cl)nc1-c1c[nH]c(C(=O)N[C@H](CO)c2cccc(Cl)c2)c1 [VX-11e]; conditions: top dose 5.12 µM; top dose inferred
# Procedure: as §1
# UNC1215 = compound: O=C(c1ccc(C(=O)N2CCC(N3CCCC3)CC2)c(Nc2ccccc2)c1)N1CCC(N2CCCC2)CC1 [UNC1215]; conditions: top dose 1 µM; top dose inferred
# Procedure: as §1
# Doxorubicin = compound: COc1cccc2c1C(=O)c1c(O)c3c(c(O)c1C2=O)C[C@@](O)(C(=O)CO)C[C@@H]3O[C@H]1C[C@H](N)[C@H](O)[C@H](C)O1 [Doxorubicin]; conditions: top dose 1.024 µM
# Procedure: as §1
# OSI-027 = compound: COc1cccc2cc(-c3nc([C@H]4CC[C@H](C(=O)O)CC4)n4ncnc(N)c34)[nH]c12 [OSI-027]; conditions: top dose 20 µM
# Procedure: as §1
# CCT018159 = compound: CCc1cc(-c2n[nH]c(C)c2-c2ccc3c(c2)OCCO3)c(O)cc1O [CCT018159]; conditions: top dose 10 µM; top dose inferred
# Procedure: as §1
Cell Line,AUC (TG101348),IC50 (TG101348),AUC (Vismodegib),IC50 (Vismodegib),AUC (17-AAG),IC50 (17-AAG),AUC (Dimethyloxalylglycine),IC50 (Dimethyloxalylglycine),AUC (BIX02189),IC50 (BIX02189),AUC (VX-11e),IC50 (VX-11e),AUC (UNC1215),IC50 (UNC1215),AUC (Doxorubicin),IC50 (Doxorubicin),AUC (OSI-027),IC50 (OSI-027),AUC (CCT018159),IC50 (CCT018159)
"HCC1187 (breast, suspension)",0.84,6.59 µM,0.984,> 10 µM,0.986,> 1 µM,0.901,> 4000 µM,0.962,> 20 µM,0.979,> 5.12 µM,0.983,> 1 µM,0.846,0.69 µM,0.654,3.26 µM,0.877,9.23 µM
"D-283MED (medulloblastoma, adherent)",0.991,> 10.2 µM,0.983,> 10 µM,0.928,> 1 µM,0.624,531 µM,0.991,> 20 µM,0.913,> 5.12 µM,0.987,> 1 µM,0.722,0.255 µM,0.991,> 20 µM,0.937,> 10 µM
"42-MG-BA (glioma, adherent)",0.807,5.72 µM,0.983,> 10 µM,0.542,0.0818 µM,0.775,1700 µM,0.945,> 20 µM,0.983,> 5.12 µM,0.983,> 1 µM,0.741,0.332 µM,0.792,9.77 µM,0.876,> 10 µM
"TGBC11TKB (stomach, adherent)",0.983,> 10.2 µM,0.989,> 10 µM,0.669,0.173 µM,0.905,> 4000 µM,0.977,> 20 µM,0.95,> 5.12 µM,0.989,> 1 µM,0.948,> 1.02 µM,0.959,> 20 µM,0.964,> 10 µM
"ARH-77 (myeloma, suspension)",0.736,2.92 µM,0.982,> 10 µM,0.97,> 1 µM,0.503,255 µM,0.903,> 20 µM,0.944,> 5.12 µM,0.972,> 1 µM,0.599,0.118 µM,0.208,0.18 µM,0.968,> 10 µM
"MEL-JUSO (melanoma, adherent)",0.838,8.14 µM,0.984,> 10 µM,0.312,0.0173 µM,0.533,310 µM,0.959,> 20 µM,0.746,1.78 µM,0.982,> 1 µM,0.3,0.0162 µM,0.478,1.08 µM,0.942,> 10 µM
"HCC1500 (breast, adherent)",0.929,> 10.2 µM,0.972,> 10 µM,0.931,> 1 µM,0.431,161 µM,0.983,> 20 µM,0.982,> 5.12 µM,0.986,> 1 µM,0.737,0.312 µM,0.273,0.274 µM,0.987,> 10 µM
"EB-3 (Burkitt lymphoma, suspension)",0.784,5.14 µM,0.983,> 10 µM,0.983,> 1 µM,0.261,45.8 µM,0.781,9.77 µM,0.92,> 5.12 µM,0.955,> 1 µM,0.866,> 1.02 µM,0.125,< 0.0781 µM,0.947,> 10 µM
"KM-H2 (Hodgkin lymphoma, suspension)",0.835,5.33 µM,0.984,> 10 µM,0.937,> 1 µM,0.833,2060 µM,0.946,> 20 µM,0.969,> 5.12 µM,0.988,> 1 µM,0.598,0.113 µM,0.601,2.26 µM,0.976,> 10 µM
"DEL (lymphoid neoplasm, suspension)",0.621,1.27 µM,0.962,> 10 µM,0.804,0.379 µM,0.269,65.4 µM,0.963,> 20 µM,0.922,> 5.12 µM,0.991,> 1 µM,0.414,0.0392 µM,0.235,0.265 µM,0.887,7.12 µM
"PF-382 (T-cell lymphoblastic leukaemia, suspension)",0.623,1.33 µM,0.991,> 10 µM,0.99,> 1 µM,0.393,132 µM,0.797,8.13 µM,0.945,> 5.12 µM,0.99,> 1 µM,0.514,0.0696 µM,0.351,0.512 µM,0.965,> 10 µM
"H2373 (mesothelioma, adherent)",0.866,> 10.2 µM,0.983,> 10 µM,0.67,0.211 µM,0.523,294 µM,0.934,> 20 µM,0.956,> 5.12 µM,0.98,> 1 µM,0.728,0.343 µM,0.47,1.02 µM,0.932,> 10 µM
"ME-180 (cervix, adherent)",0.754,3.58 µM,0.934,> 10 µM,0.571,0.0986 µM,0.491,235 µM,0.904,> 20 µM,0.969,> 5.12 µM,0.974,> 1 µM,0.624,0.143 µM,0.195,0.147 µM,0.885,> 10 µM
"P30-OHK (lymphoblastic leukaemia, suspension)",0.506,0.662 µM,0.983,> 10 µM,0.98,> 1 µM,0.597,439 µM,0.782,6.95 µM,0.962,> 5.12 µM,0.99,> 1 µM,0.476,0.0557 µM,0.183,0.176 µM,0.948,> 10 µM
"LNZTA3WT4 (glioma, adherent)",0.978,> 10.2 µM,0.956,> 10 µM,0.762,0.351 µM,0.653,659 µM,0.965,> 20 µM,0.981,> 5.12 µM,0.987,> 1 µM,0.744,0.315 µM,0.783,8.27 µM,0.906,> 10 µM
"JHH-2 (liver, adherent)",0.84,7.8 µM,0.965,> 10 µM,0.964,> 1 µM,0.645,650 µM,0.953,> 20 µM,0.91,> 5.12 µM,0.983,> 1 µM,0.809,0.585 µM,0.391,0.61 µM,0.883,> 10 µM
"CHP-126 (neuroblastoma, suspension)",0.707,2.49 µM,0.984,> 10 µM,0.925,> 1 µM,0.726,1120 µM,0.969,> 20 µM,0.987,> 5.12 µM,0.978,> 1 µM,0.51,0.068 µM,0.887,> 20 µM,0.872,> 10 µM
"HT-1376 (bladder, adherent)",0.96,> 10.2 µM,0.985,> 10 µM,0.596,0.12 µM,0.554,362 µM,0.985,> 20 µM,0.985,> 5.12 µM,0.98,> 1 µM,0.657,,0.98,> 20 µM,0.941,> 10 µM
"MEG-01 (chronic myeloid leukaemia, suspension)",0.581,1.05 µM,0.94,> 10 µM,0.952,> 1 µM,0.597,454 µM,0.696,4.28 µM,0.568,0.486 µM,0.983,> 1 µM,0.678,0.195 µM,0.318,0.402 µM,0.947,> 10 µM
"KLE (endometrium, adherent)",0.851,> 10.2 µM,0.953,> 10 µM,0.93,> 1 µM,0.702,1290 µM,0.88,> 20 µM,0.958,> 5.12 µM,0.975,> 1 µM,0.653,0.215 µM,0.603,2.81 µM,0.96,> 10 µM
"NCI-H1092 (small cell lung carcinoma, suspension)",0.942,> 10.2 µM,0.987,> 10 µM,0.984,> 1 µM,0.719,1050 µM,0.954,> 20 µM,0.99,> 5.12 µM,0.983,> 1 µM,0.833,0.67 µM,0.717,5.19 µM,0.912,> 10 µM
"BB30-HNC (head and neck, adherent)",0.875,9.7 µM,0.973,> 10 µM,0.465,0.0502 µM,0.432,164 µM,0.949,> 20 µM,0.893,> 5.12 µM,0.984,> 1 µM,0.327,0.0214 µM,0.503,1.28 µM,0.774,3.84 µM
"D-502MG (glioma, adherent)",0.731,4.29 µM,0.973,> 10 µM,0.941,> 1 µM,0.824,> 4000 µM,0.938,> 20 µM,0.958,> 5.12 µM,0.964,> 1 µM,0.881,> 1.02 µM,0.557,1.94 µM,0.969,> 10 µM
"PE/CA-PJ15 (head and neck, adherent)",0.965,> 10.2 µM,0.981,> 10 µM,0.5,0.0626 µM,0.454,185 µM,0.972,> 20 µM,0.957,> 5.12 µM,0.984,> 1 µM,0.685,0.222 µM,0.894,> 20 µM,0.821,6.44 µM
"BV-173 (chronic myeloid leukaemia, suspension)",0.448,0.471 µM,0.871,7.56 µM,0.796,0.405 µM,0.473,213 µM,0.918,> 20 µM,0.964,> 5.12 µM,0.968,> 1 µM,0.864,0.725 µM,0.173,0.151 µM,0.833,5.4 µM
"LU-135 (small cell lung carcinoma, suspension)",0.617,1.26 µM,0.942,> 10 µM,0.752,0.283 µM,0.41,148 µM,0.966,> 20 µM,0.975,> 5.12 µM,0.988,> 1 µM,0.288,0.0183 µM,0.434,0.855 µM,0.88,7.37 µM

# A lower IC50 marks a more sensitive line; fits outside the tested doses are given as limits. AUC, from the same fit, is the share of area under the viability curve across the 256-fold dose range; values near 1 show little effect. For part of these data: The top dose, if marked as inferred, is not printed in the source and was worked back from the curve model.
